{"source": "the supplement of paper PMC3334620", "note": "Whole data set: some 33,000 sequences, median “E-score (-0.5 to 0.5)” near -0.012, cut for the highest 2% near 0.27. This is one part of the list."}
{"target": "T1, Vhr1 (UniProt P40522)", "T1 sequence": "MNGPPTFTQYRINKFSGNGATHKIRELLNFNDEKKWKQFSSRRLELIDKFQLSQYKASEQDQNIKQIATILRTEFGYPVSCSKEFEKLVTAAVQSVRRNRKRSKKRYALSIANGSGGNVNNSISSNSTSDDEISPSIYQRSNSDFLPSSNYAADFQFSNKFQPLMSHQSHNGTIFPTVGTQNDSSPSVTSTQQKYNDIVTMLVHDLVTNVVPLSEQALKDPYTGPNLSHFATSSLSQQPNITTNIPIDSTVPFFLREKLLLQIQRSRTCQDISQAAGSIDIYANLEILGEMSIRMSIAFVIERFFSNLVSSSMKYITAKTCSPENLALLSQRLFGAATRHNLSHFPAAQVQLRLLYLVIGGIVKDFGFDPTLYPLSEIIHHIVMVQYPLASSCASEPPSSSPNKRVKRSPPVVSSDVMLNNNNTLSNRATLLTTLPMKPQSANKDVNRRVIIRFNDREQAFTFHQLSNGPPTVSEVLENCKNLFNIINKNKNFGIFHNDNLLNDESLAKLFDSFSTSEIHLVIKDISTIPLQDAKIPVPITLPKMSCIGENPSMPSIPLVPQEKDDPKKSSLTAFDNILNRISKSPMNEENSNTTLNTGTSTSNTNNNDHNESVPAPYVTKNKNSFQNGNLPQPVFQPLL", "test": "PBM E-score (8-mer binding enrichment) (E-score (-0.5 to 0.5)); higher = stronger / more preferred TF binding; most listed sequences are background and not binding sites", "conditions": "protein concentration: 200 nM; construct: GST-full length", "procedure,_shortened": "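Using PURExpress in vitro transcription/translation, GST-tagged yeast transcription factors were made in full-length or DNA-binding-domain form. These were applied at about 100-200 nM to double-stranded universal all-10-mer Agilent arrays, and bound protein was detected with fluorescent anti-GST. Scans were normalised with masliner before the Universal PBM Analysis Suite assigned E-scores to ungapped eight-base words pooled with their reverse complements.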"}
{"sequence": "AGTGCAGC", "PBM E-score": -0.0479}
{"sequence": "AACCACTA", "PBM E-score": -0.105}
{"sequence": "GCTTAACC", "PBM E-score": -0.159}
{"sequence": "GGACGGGA", "PBM E-score": -0.214}
{"sequence": "GAGTAAGA", "PBM E-score": 0.0795}
{"sequence": "CCGTCTCG", "PBM E-score": 0.00454}
{"sequence": "GTGCCGGA", "PBM E-score": 0.165}
{"sequence": "CTAGAGGC", "PBM E-score": -0.341}
{"sequence": "AACACCTC", "PBM E-score": -0.217}
{"sequence": "CGCATCGA", "PBM E-score": 0.0906}
{"sequence": "AGCCAGCT", "PBM E-score": -0.0236}
{"sequence": "TATCACCA", "PBM E-score": 0.0885}
{"sequence": "GGTACAAA", "PBM E-score": -0.136}
{"sequence": "CTCGATGA", "PBM E-score": 0.128}
{"sequence": "AATTGCCA", "PBM E-score": -0.0675}
{"sequence": "CCATAGCG", "PBM E-score": -0.117}
{"sequence": "ATTGTCCG", "PBM E-score": 0.0939}
{"sequence": "CATGAGCC", "PBM E-score": 0.159}
{"sequence": "AATCACTA", "PBM E-score": 0.267}
{"sequence": "ATTGGGGA", "PBM E-score": 0.108}
{"sequence": "CGCAGTAG", "PBM E-score": -0.029}
{"sequence": "AGCCTTCA", "PBM E-score": -0.116}
{"sequence": "CTAGTGAC", "PBM E-score": 0.109}
{"sequence": "TGCAGCCA", "PBM E-score": 0.0682}
{"sequence": "CTCGCCCA", "PBM E-score": 0.0647}
{"sequence": "TAAAGCAA", "PBM E-score": -0.0681}
{"sequence": "CATTGCAA", "PBM E-score": -0.114}
{"sequence": "AATGCCGT", "PBM E-score": 0.0908}
{"sequence": "AGGACGAA", "PBM E-score": -0.106}
{"sequence": "CAGACAGG", "PBM E-score": -0.0919}
{"sequence": "GGCGATCA", "PBM E-score": -0.0343}
{"sequence": "AGATTGGA", "PBM E-score": -0.0483}
{"sequence": "CCTATACC", "PBM E-score": -0.122}
{"sequence": "CGCCAAAC", "PBM E-score": -0.00831}
{"sequence": "GAACCTAA", "PBM E-score": -0.105}
{"sequence": "GGAGGGAA", "PBM E-score": -0.0491}
{"sequence": "CCGATATC", "PBM E-score": 0.0472}
{"sequence": "AAGGGCTG", "PBM E-score": -0.276}
{"sequence": "GAAGATGC", "PBM E-score": -0.105}
{"sequence": "AATACAAA", "PBM E-score": 0.221}
{"sequence": "ACGCGGTG", "PBM E-score": 0.0699}
{"sequence": "TACACGCA", "PBM E-score": -0.11}
{"sequence": "TAAGCCAA", "PBM E-score": -0.088}
{"sequence": "ACACAATA", "PBM E-score": 0.00792}
{"sequence": "GACAGTGA", "PBM E-score": 0.0962}
{"sequence": "TACGGACA", "PBM E-score": 0.0812}
{"sequence": "AGAATGTC", "PBM E-score": -0.081}
{"sequence": "ATCTTGTA", "PBM E-score": -0.0208}
{"sequence": "AGCCTCTG", "PBM E-score": -0.00921}
{"sequence": "GATCTAGA", "PBM E-score": -0.174}
{"sequence": "ACATCCAT", "PBM E-score": 0.164}
{"sequence": "AACTAAGA", "PBM E-score": 0.019}
{"sequence": "CCCAAAGA", "PBM E-score": -0.0649}
{"sequence": "CAGGTGTC", "PBM E-score": 0.219}
{"sequence": "GAAAGCGA", "PBM E-score": -0.121}
{"sequence": "AACTGCTA", "PBM E-score": -0.156}
{"sequence": "CCTGTTCC", "PBM E-score": -0.0888}
{"sequence": "CGTCGCAC", "PBM E-score": 0.0343}
{"sequence": "ACGGGATG", "PBM E-score": 0.0719}
{"sequence": "CGGTACGC", "PBM E-score": 0.00824}
{"sequence": "GGGCAGTA", "PBM E-score": 0.00681}
{"sequence": "GGGTCACA", "PBM E-score": 0.179}
{"sequence": "GGAGCGAA", "PBM E-score": -0.1}
{"sequence": "ATGGCATC", "PBM E-score": 0.00305}
{"sequence": "AGATTTCA", "PBM E-score": -0.0861}
{"sequence": "TATTAAGA", "PBM E-score": -0.246}
{"sequence": "GTATTTGA", "PBM E-score": -0.0018}
{"sequence": "ATCTATTC", "PBM E-score": 0.11}
{"sequence": "ACCCAGAT", "PBM E-score": -0.0382}
{"sequence": "ATAAGTCC", "PBM E-score": -0.116}
{"sequence": "GACGTGAC", "PBM E-score": 0.125}
{"sequence": "CGGACGTC", "PBM E-score": 0.107}
{"sequence": "CGCCATAA", "PBM E-score": 0.0256}
{"sequence": "GAGAACAC", "PBM E-score": -0.0409}
{"sequence": "GAACCACA", "PBM E-score": 0.219}
{"sequence": "TCGAAGCA", "PBM E-score": -0.278}
{"sequence": "ATCACGCC", "PBM E-score": 0.23}
{"sequence": "CCTACGCC", "PBM E-score": -0.238}
{"sequence": "AGAGCGAG", "PBM E-score": 0.00159}
{"sequence": "ACACACCA", "PBM E-score": 0.282}
{"sequence": "GTAGACGA", "PBM E-score": -0.133}
{"sequence": "TCATAGAA", "PBM E-score": 0.123}
{"sequence": "GACGATAC", "PBM E-score": 0.0425}
{"sequence": "GAAAGTAC", "PBM E-score": 0.00181}
{"sequence": "AGAGCCCC", "PBM E-score": -0.205}
{"sequence": "CCACATAC", "PBM E-score": 0.0501}
{"sequence": "ACACTTGA", "PBM E-score": -0.0584}
{"sequence": "GACCAACA", "PBM E-score": 0.209}
{"sequence": "ATAGAAGA", "PBM E-score": -0.307}
{"sequence": "ACATAGGT", "PBM E-score": 0.11}
{"sequence": "GCATCATA", "PBM E-score": 0.136}
{"sequence": "GCAAATGA", "PBM E-score": -0.141}
{"sequence": "AATTTGCT", "PBM E-score": -0.215}
{"sequence": "CAAATGCA", "PBM E-score": -0.267}
